In paper PMC4336329 (PLoS ONE, 2015):
Screen size: about 310,000 compounds; about 14,000 (4.5%) showed an effect of 50% or more. Effects have a minus sign here. The list shows a part of the results.

Target: human ether-à-go-go-related gene (hERG) potassium channel (human, UniProt Q12809)
Assay: primary screen, population patch clamp on CHO cells stably expressing hERG
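Also: peak tail current of the secondary pulse compared with the same well before compound.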

Chain of human ether-à-go-go-related gene (hERG) potassium channel (Q12809 whole entry, looked up): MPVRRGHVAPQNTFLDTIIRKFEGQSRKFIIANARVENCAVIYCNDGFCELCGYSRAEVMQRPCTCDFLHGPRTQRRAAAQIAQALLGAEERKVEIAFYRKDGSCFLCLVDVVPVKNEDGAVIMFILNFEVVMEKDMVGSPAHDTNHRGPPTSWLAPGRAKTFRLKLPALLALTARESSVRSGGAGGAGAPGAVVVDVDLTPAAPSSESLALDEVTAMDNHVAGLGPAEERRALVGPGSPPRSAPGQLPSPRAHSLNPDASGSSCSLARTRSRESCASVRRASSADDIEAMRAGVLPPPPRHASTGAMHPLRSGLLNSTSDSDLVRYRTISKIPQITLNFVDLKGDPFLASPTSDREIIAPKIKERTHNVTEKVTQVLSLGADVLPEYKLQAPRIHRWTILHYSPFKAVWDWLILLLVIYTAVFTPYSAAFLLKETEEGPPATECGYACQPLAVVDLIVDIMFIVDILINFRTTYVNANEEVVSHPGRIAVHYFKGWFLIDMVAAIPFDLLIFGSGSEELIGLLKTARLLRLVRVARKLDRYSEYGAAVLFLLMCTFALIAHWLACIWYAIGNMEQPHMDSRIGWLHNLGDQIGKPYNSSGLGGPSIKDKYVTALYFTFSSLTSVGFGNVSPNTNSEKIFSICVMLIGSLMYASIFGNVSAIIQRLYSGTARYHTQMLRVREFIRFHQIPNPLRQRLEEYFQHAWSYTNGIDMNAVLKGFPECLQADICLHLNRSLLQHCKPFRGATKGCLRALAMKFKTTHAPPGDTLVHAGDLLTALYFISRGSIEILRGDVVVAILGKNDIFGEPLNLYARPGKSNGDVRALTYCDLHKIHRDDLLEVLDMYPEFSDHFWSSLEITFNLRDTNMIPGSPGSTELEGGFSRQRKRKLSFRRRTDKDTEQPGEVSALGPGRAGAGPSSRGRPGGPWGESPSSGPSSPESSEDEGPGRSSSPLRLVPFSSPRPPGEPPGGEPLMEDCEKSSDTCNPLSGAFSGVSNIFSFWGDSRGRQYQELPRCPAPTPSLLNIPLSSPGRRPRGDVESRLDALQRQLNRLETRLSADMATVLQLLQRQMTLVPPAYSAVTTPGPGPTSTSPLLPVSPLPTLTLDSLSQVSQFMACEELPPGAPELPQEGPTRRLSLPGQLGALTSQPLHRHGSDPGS

In order of rising “hERG current change (%, negative = inhibition) at 10uM” value:
1. CN(C)CC(O)COC(c1ccc(Cl)cc1)c1ccc(Cl)cc1 (centres unmarked)  -75.8%
2. CCN(CC)S(=O)(=O)c1ccc(C)c(NC(=S)N2CCN(c3ccccn3)CC2)c1  -48.3%
3. CCC(Sc1nc2ccccc2c(=O)n1CCN1CCOCC1)C(=O)NCc1cccnc1 (centres unmarked)  -37%
4. COc1cccc(-c2nn3c(-c4ccco4)nnc3s2)c1  -32%
5. O=C(CSCc1ccc(Cl)cc1)NN=C1CCCCCC1  -28.7%
6. O=C(CSc1ccc2ccccc2c1)N1CCN(c2ccc(O)cc2)CC1  -28.2%
7. Cc1ccc(N(C(=O)c2ccc3c(c2)OCO3)C2C=CS(=O)(=O)C2)cc1C (centres unmarked)  -28.1%
8. COc1cccc(C(=O)Nc2ccc3[nH]ncc3c2)c1  -23.6%
9. CCOC(=O)c1c(S(=O)(=O)NCc2ccc(C)o2)c(C)n(C)c1C  -22.3%
10. CN(C)CCn1c(=O)n(-c2cccc(Cl)c2)c(=O)c2c3c(sc21)CCCCC3  -20.7%
11. Cc1occc1C(=O)NNC(=O)Nc1ccc([N+](=O)[O-])cc1  -12.4%
12. N/C(=N\OC(=O)CSc1ccccc1)c1ccc([N+](=O)[O-])cc1  -11.7%
13. O=C1Cc2ccccc2C(c2ccc(Br)cc2)N1 (centres unmarked)  -10.1%
14. Cc1ccc(NC(=O)c2c(F)cccc2Cl)cc1S(=O)(=O)N1CCOCC1  -7.14%
15. CCC(C)N1C(=O)C2C(C(=O)Nc3cccc(OC)c3)C3C=CC2(O3)C1C(=O)NC1CCCCC1C (centres unmarked)  -6.83%
16. O=C(COc1ccc(Cl)cc1Cl)c1ccc[nH]1  -6.79%
17. COc1ccc(NC(=O)C2COc3ccccc3O2)cc1 (centres unmarked)  -5.43%
18. COc1ccc(CCNC(=O)NC(C(F)(F)F)C(F)(F)F)cc1OC  -0.421%
19. CC(C)(C)n1ncc2c(=O)n(CC(=O)Nc3ccc4c(c3)OCCO4)cnc21  2%
20. Cc1cc(Br)ccc1NC(=O)CN1C(=O)C2CC=CCC2C1=O (centres unmarked)  3.16%
21. CCn1cc(Br)c(C(=O)Nc2ccc(OC)cc2)n1  3.21%
22. C[N+](C)(CC#N)C/C=C\c1ccccc1.[Cl-]  4.52%
23. Cc1coc2c(C)c3oc(=O)c(CCC(=O)N(C)CC(=O)O)c(C)c3cc12  8.09%
24. O=C(O)c1ccc(-c2noc(-c3ccccc3Cl)n2)cc1  8.88%
25. COCCOC(=O)c1cc(C(=O)c2cc(F)ccc2O)coc1=N  9.29%
26. Cc1ccc(N2CCN(C(=O)N3CCOCC3)CC2)cc1C  9.72%
27. COc1ccc(C2=NN3C(C2)c2ccccc2OC3c2cccs2)cc1 (centres unmarked)  10.8%
28. CCCCN1C(=S)NC[C@@H]1c1ccccc1  11%
29. COc1ccc(C(=O)N=C2SC3CS(=O)(=O)CC3N2c2ccccc2)cc1OC (centres unmarked)  11%
30. Cc1cc(C)cc(C(=O)NC(CC(N)=O)c2ccc(NCCN3CCOCC3)c([N+](=O)[O-])c2)c1 (centres unmarked)  12.3%
31. COc1ccc(Nc2nc(-c3ccccc3O)nc3ccccc23)cc1  12.5%
32. CSc1c(-c2ccccn2)c(N)nn1C(=O)C1CC1  12.9%
33. O=C(OCC(=O)N1CCCC1)c1cc(F)c(F)cc1Cl  13%
34. Cc1ncc([N+](=O)[O-])n1CC(=O)Nc1ccc(F)cc1F  13.3%
35. CC(C)CC(NC(=O)C(CC(C)C)NC(=O)OC(C)(C)C)C(N)=O (centres unmarked)  13.8%
36. Cc1cc(Br)c(OCc2ccc(C(=O)N/N=C/c3ccc[nH]3)cc2)c(Br)c1  14.7%
37. COc1cc(C(=O)NCC(=O)N/N=C(\C)Cc2ccccc2)cc(OC)c1OC  15%
38. COc1ccc(C(=O)n2c(C)c(CCO)c(=O)n2C)cc1  15.4%
39. O=C(Cc1nnc(NC(=O)Nc2ccccc2)s1)Nc1ccccc1  16.5%
40. CC(C)c1ccc(/C=N/NC(=O)CN(c2cccc(Cl)c2Cl)S(C)(=O)=O)cc1  16.5%
41. CCn1c(N)c(C(=O)NCc2ccc3c(c2)OCO3)sc1=S  20.6%
42. Cc1c(Cl)cccc1NC(=O)CCCN1C(=O)c2cccnc2C1=O  24.8%
43. CC1=C/C(=C(\c2cc(C)c(O)c(Br)c2)c2ccccc2S(=O)(=O)O)C=C(Br)C1=O  26.7%
44. COc1ccc(S(=O)(=O)N(C)c2ccc(C(=O)N3CCC(C(N)=O)CC3)cc2)cc1OC  32.7%
